Experimental findings from the supplement of paper PMC4967469 are described below.

Compound in the assay: CCCCCCCCCCCC1=C(O)C(=O)C=C(O)C1=O [Embelin]
Nature of the assay: Viability of human cancer cell lines after 72 h of drug (GDSC screen). The following applies: top dose 32 µM; top dose inferred. As to the method: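 Human cancer cell lines in 384-well plates, medium with 10% serum, drug for 72 h over a 256-fold dose range (nine 2-fold or five 4-fold steps up to the top dose). Adherent lines were fixed and stained with the nucleic acid dye Syto60, suspension lines read with resazurin; signal relative to control wells, capped at 0 and 100%. One two-parameter sigmoid per drug and line, fitted in a mixed model over all curves with the slope shared within a line.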

pIC50: −log10 of the molar value. A lower IC50 marks a more sensitive line; a fit beyond the top or the lowest dose is shown as a bound at that dose. For AUC the same curve is integrated over the 256-fold range of doses and scaled to a fraction; values near 1 show little effect. A top dose marked as inferred was derived from the fitted curves, not read from the paper.

On to WM35 (melanoma, adherent), for which the AUC was determined as 0.594 and the pIC50 was 5.44.

Consider WM278 (melanoma, adherent), for which the AUC was 0.745 and the pIC50 was 4.95.

With WM793B (melanoma, adherent), the AUC stood at 0.696 and the pIC50 is 5.12.

Turning to WM1552C (melanoma, adherent), the AUC is 0.72 and the pIC50 is 5.07.

With WM-115 (melanoma, adherent), the AUC was 0.647 and the pIC50 was 5.25.

In the case of WSU-DLCL2 (B-cell lymphoma, suspension), the AUC was determined as 0.99 and the pIC50 was < 4.49.

For WSU-NHL (lymphoid neoplasm, suspension), the AUC was 0.809 and the pIC50 was 4.84.

On to YAPC (pancreas, adherent), for which the AUC was determined as 0.951 and the pIC50 is < 4.49.

Take YKG-1 (glioma, adherent): the AUC was 0.739 and the pIC50 is 5.01.

As to YT (lymphoid neoplasm, suspension), the AUC stood at 0.753 and the pIC50 was 5.03.

huH-1 (liver, adherent): the AUC amounted to 0.82 and the pIC50 was 4.61.

As for no-10 (glioma, adherent), the AUC is 0.776 and the pIC50 was 4.80.

For no-11 (glioma, adherent), the AUC amounted to 0.743 and the pIC50 was 4.92.
